We go through 83 compounds from ChEMBL document CHEMBL1201862, “PubChem BioAssay data set” (2004).

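Tested at 5 concentrations; 48 h exposure; 96-well plates; endpoints linearly interpolated, else capped at highest concentration. GI50 = concentration required for 50% inhibition of growth.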 The source made the active and inactive calls. Cut-off read from the data, not from the text of the source: active = GI50 up to about 1.1 µM and inactive = higher.

This experiment has as its system NCI-H322M. The experiment is described as follows: NCI-60 cell line screen, 48 h.
In the case of `Cc1ccc(-c2cc(-c3c(C)nn(C)c(=O)c3N)n[nH]2)cc1`, the GI50 was inactive: > 100 µM. For the compound `CCOc1ccccc1Nc1ccc(N)cc1S(=O)(=O)O`, the GI50 is inactive: > 100 µM. In the case of `Cn1c(=O)c2nc(CCCCc3nc4c(=O)n(C)c(=S)n(C)c4[nH]3)[nH]c2n(C)c1=S`, the GI50 was inactive: > 100 µM. With `O=C1NC(=O)C(Cc2ccccc2)(c2cccnc2)N1` (stereo not drawn), the GI50 is inactive: > 100 µM. The same measure for `O=C1c2ccccc2C(=O)N1CCCOCc1cnc(O)nc1O`: inactive: > 100 µM; for `CCOc1ccc(NC2=CC(=O)C(=O)c3ccccc32)cc1`: inactive: 7.66 µM; for `Nc1nc(Cl)nc2c1ncn2C1CC(O)C(CO)O1` (stereo not drawn): inactive: 79.3 µM. For `OCCNCCN1CCN(CCCN2c3ccccc3Sc3ccc(C(F)(F)F)cc32)CC1`, the GI50 was inactive: 24.8 µM. Regarding `C[N+](C)=c1nc(N2CCc3ccccc3C2)ss1.[O-][Cl+3]([O-])([O-])[O-]`, the GI50 is inactive: > 100 µM. Consider `N#Cc1cccc(N2C(=O)c3c(c(-c4ccccc4)c(-c4ccc(Sc5ccc(-c6c(-c7ccccc7)c7c(c(-c8ccccc8)c6-c6ccccc6)C(=O)N(c6cccc(C#N)c6)C7=O)cc5)cc4)c(-c4ccccc4)c3-c3ccccc3)C2=O)c1`, for which the GI50 was inactive: > 100 µM. Regarding `O=C1c2c(c(-c3ccccc3)c(-c3ccccc3)c(-c3ccccc3)c2-c2ccccc2)C(=O)N1c1cccc(Br)c1`, the GI50 was inactive: > 100 µM. The same measure for `O=C(CC(C(=O)O)N1CCOCC1)c1ccccc1` (stereo not drawn): inactive: > 100 µM. Take `CCCCCCCCCCCCCCCCNc1cccc2ccccc12`: the GI50 is inactive: > 100 µM.

Turning to `CC1(C)C=C(N2CCN(C3=CC(C)(C)NC(C)(C)C3)CC2)CC(C)(C)N1`, the GI50 was inactive: > 100 µM.

On to `COC(=O)CN1Cc2cc(C)cc(c2O)CN(CC(=O)OC)Cc2cc(C)cc(c2O)CN(CC(=O)OC)Cc2cc(C)cc(c2O)C1`, for which the GI50 was active: 0.466 µM. `Cn1nc(/C=C\C(=O)N2CC(CCl)c3c2cc(N)c2ccccc32)cc1/C=C/C(=O)N1CC(CCl)c2c1cc(N)c1ccccc21` (stereo not drawn): the GI50 was active: < 0.01 µM. With `COc1ccc2o/c(=N/c3ccccc3)c(C(N)=O)cc2c1`, the GI50 was inactive: > 37.3 µM. `CC1(C)OC2OC(/C=C/[N+](=O)[O-])C3OC(C)(C)OC3C2O1` (stereo not drawn): the GI50 is inactive: 17.7 µM. The same measure for `COC(=O)C1(O)C(c2ccccc2)=NC2(C)CCCC21` (stereo not drawn): inactive: > 100 µM; for `CC(C)C1N(C)c2ccc(Cl)cc2[C@H]2c3ccccc3CCN12` (stereo partly drawn): inactive: 84.1 µM. The same measure for `Cn1c(-c2cccs2)cc(-c2ccccc2)c1-c1cccs1`: inactive: > 100 µM; for `COc1cc(Nc2nc3cc(C(F)(F)F)ccc3nc2-c2ccccc2)cc(OC)c1OC`: inactive: > 100 µM.

Turning to `O=c1[nH]c(=O)n(C2OC(CO)C(O)C2O)c2ncc(-c3ccc(-c4ccccc4)cc3)nc12` (stereo not drawn), the GI50 was inactive: > 20 µM. `CCSc1n/c(=C\c2ccc(N(C)C)cc2)c2nnnn12`: the GI50 is inactive: > 100 µM. On to `Cc1ccc(C(=N)c2ccccc2Cc2cccc3ccccc23)c2ccccc12`, for which the GI50 was inactive: > 100 µM.

Regarding `COc1cc(OC)c2c(O)c3c(cc2c1)CC(C)(C)CC3=O`, the GI50 is inactive: > 100 µM.

Consider `CC(C)C[C@H](NC(=O)CCc1cccc2ccccc12)B(O)O`, for which the GI50 was inactive: 20.3 µM. Regarding `[N-]=[N+]=NC(c1ccccc1)(c1ccccc1)c1ccccc1`, the GI50 is inactive: 17.1 µM. The same measure for `Nc1nc[n+](Cc2ccccc2)c2ncn(Cc3ccccc3)c12`: inactive: > 100 µM.

For the compound `O=C1C2CCCCC2C(=O)N1n1c(Cc2ccccc2)n[nH]c1=O` (stereo not drawn), the GI50 is inactive: > 100 µM.

On to `CC1CCC2C(C)C(OC(=O)CCC(=O)O)OC3OC4(C)CCC1C32OO4` (stereo not drawn), for which the GI50 was inactive: > 100 µM. Take `Cc1cc(N(CCC#N)CCC#N)ccc1/C=C1\N=C(c2cc([N+](=O)[O-])ccc2Cl)N(c2cccc(Cl)c2)C1=O`: the GI50 was inactive: > 100 µM.

With `CC(=O)c1ccc2c(c1)CC1(C2)Cc2ccc3c(c2C1=O)CCC3` (stereo not drawn), the GI50 is inactive: 31.2 µM.

On to `Oc1cc(-c2ccc(Cl)cc2)cn2c1nc1ccccc12`, for which the GI50 is inactive: 30.3 µM. For the compound `CCCCCCCCCCCCCCCCCCNc1ccn(C2OC(CO)C(OP(=O)(O)OCC3CCC(n4ccc(N)nc4=O)O3)C2O)c(=O)n1` (stereo not drawn), the GI50 is inactive: > 100 µM. The result for `CSc1nc(SC)c2c(C#N)n[nH]c2n1` reads inactive: > 100 µM. The same measure for `CCOP(=O)(/C=C\n1cnc2c(=O)n(C(C)=O)c(N)nc21)OCC`: inactive: > 100 µM. Turning to `COP(=O)(/C=C/C(NC(=O)C(Cl)(Cl)Cl)c1ccccc1)OC` (stereo not drawn), the GI50 was inactive: > 100 µM.

For `N#Cc1cc2c(cc1Cl)Sc1nnc(Nc3ccccc3)n1S2(=O)=O`, the GI50 was inactive: 2.57 µM. In the case of `NC1=NS(=O)(=O)Nc2nc(-c3ccccc3)c(-c3ccccc3)nc21`, the GI50 is inactive: > 100 µM.

Consider `CCOC(=O)c1ccc(Nc2nc3ccc(C(F)(F)F)cc3nc2-c2ccccc2)cc1`, for which the GI50 is inactive: > 100 µM. The result for `O=C1O[C@@H](c2ccc3c(c2)OCO3)C2C(=O)O[C@@H](c3ccc4c(c3)OCO4)C12` (stereo partly drawn) reads inactive: > 100 µM. Take `O=[N+]([O-])C(=C(Nc1ccccc1)Nc1ccccc1)/C(Cl)=C(\Cl)Br`: the GI50 is inactive: 15.9 µM.

As for `CNC(=O)N1CN(c2ccccc2)C2(CCN(CCCC3(c4ccc(F)cc4)OCCO3)CC2)C1=O`, the GI50 is inactive: > 100 µM. The result for `CC[C@@H]1CN(C)[C@H]2Cc3c([nH]c4ccccc34)C(=O)C[C@H]1C2C(=O)OC` (stereo partly drawn) reads inactive: > 100 µM; that for `O=C1c2ccccc2C(=O)N1CCN(CCN1C(=O)c2ccccc2C1=O)Cc1ccccc1`, inactive: > 100 µM. In the case of `Cc1cc(C)nc(NS(=O)(=O)c2ccc(Nc3c4ccccc4nc4c(C(=O)NCCCN(CCO)CCO)cccc34)cc2)n1`, the GI50 was inactive: 17.1 µM. For the compound `CCC(C)OC(=O)/C(Br)=C1/OC(=O)c2ccccc2-c2ccccc21` (stereo not drawn), the GI50 was inactive: 45.8 µM. Consider `COC(=O)C1C(O)CC(c2ccccn2)N(Cc2ccccc2)C1c1ccccn1` (stereo not drawn), for which the GI50 was inactive: 82.4 µM.

Turning to `Cc1cc(S(=O)(=O)NC2=NNC(C)CN2)c(S)cc1Cl` (stereo not drawn), the GI50 was inactive: 69.3 µM. The same measure for `Cc1cn(CC2=NCC(C)(C)N2)c(=O)[nH]c1=O`: inactive: > 100 µM. The same measure for `CCCCCc1cc2cc3c(c(O)c2c(=O)[nH]1)C1(CC3)C(=O)c2c(O)c3c(c(O)c2C1=O)C(=O)C(OC)=CC3=O` (stereo not drawn): inactive: 2.56 µM. The result for `O=c1c2ccccc2c2c1c1c3ccccc3c(=O)c1c1c3ccccc3c(=O)c21` reads inactive: > 100 µM.

With `C[N+](C)([O-])Cc1cccc(NC(=O)c2ccc(C(=O)Nc3cccc(C[N+](C)(C)[O-])c3)cc2)c1`, the GI50 was inactive: > 100 µM. As for `NC(CCCNc1cccc(O)c1)C(=O)O` (stereo not drawn), the GI50 was inactive: > 100 µM. The same measure for `C=CCc1cccc2cc(C(=O)NCc3ccccc3)c(=N)oc12`: inactive: 25.5 µM.

`C#CCN(C(=O)C(F)(F)F)C(/C=C\C(=O)OC)(C(=O)OCC)C(=O)OCC`: the GI50 is inactive: > 100 µM. With `NC(=O)NCCCC(NC(=O)OCCCCCn1ccc(=O)[nH]c1=O)C(=O)O` (stereo not drawn), the GI50 was inactive: > 100 µM. With `Cc1ccc(C(=O)/C=C(O)/C(O)=C/C(=O)c2ccc(C)cc2C)c(C)c1`, the GI50 is inactive: 12.8 µM.

For `CC1(C)CCCCCC(O)C(O)CCC(C)(C)C1=O` (stereo not drawn), the GI50 was inactive: > 100 µM. Take `O=C(NC(CS)C(=O)O)c1c2ccccc2nc2ccccc12` (stereo not drawn): the GI50 is inactive: 60 µM. The same measure for `N#Cc1ccccc1NC(=O)c1ccccc1`: inactive: > 100 µM. Consider `CCC(C)CNC1=C(NC(C)=O)C(=O)c2ccccc2C1=O` (stereo not drawn), for which the GI50 is inactive: > 100 µM.

As to `O=C(Cc1ccccc1)NN1C(=O)C(Cl)C1c1ccc([N+](=O)[O-])cc1` (stereo not drawn), the GI50 is inactive: > 100 µM. `C/C(=N\NC(N)=S)c1sc(-n2nc(-c3ccccc3)cc2-c2ccccc2)nc1C`: the GI50 was inactive: 62.4 µM. As to `CC12CP(=O)(O)CC1C2(Cl)Cl` (stereo not drawn), the GI50 was inactive: > 100 µM. The same measure for `CN1N(c2ccccc2)C(=O)C2=NC=C(C#N)C(=N)C21C` (stereo not drawn): inactive: > 100 µM; for `c1ccc(/N=C2\c3ccccc3C3=NCCCN32)cc1`: inactive: > 100 µM. As for `CC(C)OP(=O)(OC(C)C)/C(I)=N/Nc1ccc([N+](=O)[O-])cc1`, the GI50 was inactive: > 100 µM. As to `CCOC(=O)Nn1cnnc1C`, the GI50 was inactive: > 100 µM. The same measure for `CC(NC(=O)C(CC(=O)OCc1ccccc1)NC(=O)OCc1ccccc1)c1ccccc1` (stereo not drawn): inactive: 89.7 µM; for `N#CC(C(=O)/C(=N/N)C(C#N)c1ccccc1)c1ccccc1` (stereo not drawn): inactive: > 100 µM; for `CCCCCOCC(O)CO` (stereo not drawn): inactive: > 100 µM.

As for `COc1ccc(OC)c2sc(N3C(=O)/C(=C/c4ccc(SC)cc4)N=C3c3ccccc3)nc12`, the GI50 was inactive: 45.1 µM. For `CCOC(=O)/C(=C\NC[C@@H](C)O)c1nc2ccccc2[nH]1`, the GI50 is inactive: > 100 µM. On to `COC(=O)CCC1(C)C2CCC1/C(=N/O)C2` (stereo not drawn), for which the GI50 was inactive: > 100 µM. For the compound `O=C(Nc1ccc(Cl)cc1)C(=O)C(C(=O)c1ccccc1-c1ccccc1)C1OC(=O)c2ccccc21` (stereo not drawn), the GI50 was inactive: 20.2 µM. For the compound `N=C(N)c1ccc(/N=N\c2c(O)ccc3c2[nH]c2ccccc23)cc1`, the GI50 is inactive: 11.7 µM. With `CC(=O)Oc1c(C)cc2c(c1C)C(C)(C)CN2C(=O)C(C)(C)C`, the GI50 was inactive: > 100 µM. For the compound `Cc1ccc(NC(=O)C2C(=O)N(c3ccc(C)c(C)c3)C(=O)C2N=N)cc1C` (stereo not drawn), the GI50 is inactive: > 100 µM.

As to `O/N=C1\CCc2cc3c(cc21)CCC3`, the GI50 is inactive: > 100 µM. For `COC(=O)CCC(=O)Nc1cccc(C(F)(F)F)c1`, the GI50 is inactive: > 100 µM. `C1OCC2S[C@@H]3COCO[C@@H]3C2O1` (stereo partly drawn): the GI50 was inactive: > 100 µM.
